Substitutions are numbered along the chain they refer to. Values joined by “and” are separate entries in the source; they are usually repeats but may differ in a detail not shown here. Identical values can stand only once.
Legend:
[1] = target: T1, ABCG2 (Homo sapiens, UniProt Q9UNQ0); assay: Sensitization of mitoxantrone resistance in HEK293/ABCG2 cells, SRB assay; details: for SI (sensitization index): HEK293/ABCG2, mitoxantrone
T1 sequence (Q9UNQ0 1-655): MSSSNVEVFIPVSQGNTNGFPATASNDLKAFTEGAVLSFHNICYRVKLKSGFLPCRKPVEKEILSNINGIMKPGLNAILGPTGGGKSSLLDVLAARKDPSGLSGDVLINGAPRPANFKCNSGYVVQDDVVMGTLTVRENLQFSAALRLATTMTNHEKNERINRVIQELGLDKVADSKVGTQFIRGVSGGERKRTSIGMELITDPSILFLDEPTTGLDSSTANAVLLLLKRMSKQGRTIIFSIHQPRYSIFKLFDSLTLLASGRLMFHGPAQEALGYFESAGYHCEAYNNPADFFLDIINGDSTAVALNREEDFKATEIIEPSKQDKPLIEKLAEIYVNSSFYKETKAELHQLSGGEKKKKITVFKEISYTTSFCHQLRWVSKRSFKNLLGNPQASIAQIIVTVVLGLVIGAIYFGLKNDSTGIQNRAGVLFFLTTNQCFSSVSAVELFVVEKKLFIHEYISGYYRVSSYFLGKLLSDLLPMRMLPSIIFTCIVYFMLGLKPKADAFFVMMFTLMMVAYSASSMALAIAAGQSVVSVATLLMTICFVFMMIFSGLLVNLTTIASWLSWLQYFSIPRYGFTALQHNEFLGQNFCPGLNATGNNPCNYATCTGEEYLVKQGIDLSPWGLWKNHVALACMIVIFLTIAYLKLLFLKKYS
Protocol: (§1) The potency and sensitization index of the inhibitors were calculated as follows: Potency index=IC50(inhibitor)/IC50(inhibitor+drug) Sensitization index=IC50(drug+inhibitor)/IC50(drug)

[2] = target: T1, ABCG2; assay: Western blot of ABCG2 level and degradation in HEK293/ABCG2 cells
Protocol: Western blot, immunoprecipitation, and flow cytometry.
(§2) Then, the cells were washed 3 times and incubated with Phycoerythrin-Streptavidin for 30 min followed by washing for 3 times and analysis by flow cytometry.
Samples were taken at times before exposure of cells (control) and 24, 48 and 72 hours after exposure in the top 3 panels, and before, 2, 24 and 48 hours after exposure (bottom panel).

[3] = target: T1, ABCG2; assay: 5D3 antibody staining (ABCG2 conformation), flow cytometry; details: HEK293/ABCG2, 10 μM, 30 min
Protocol: as §2

[4] = target: T1, ABCG2; assay: Mitoxantrone accumulation in ABCG2-transfected HEK293 cells (flow cytometry); details: HEK293/ABCG2, 10 μM
[5] = target: T2, ABCG2 (Homo sapiens, UniProt Q9UNQ0, R482T); details: MCF7/AdVp3000, 200 nM inhibitor
T2 sequence (Q9UNQ0 1-655 R482T): T1 sequence (Q9UNQ0 1-655) with R482T
Protocol: as §1
Data was collected using the SRB assay. […] The data shown are mean±SD of three independent experiments.

[6] = tested on: HEK293/ABCG2 cells; assay: Cytotoxicity of inhibitor alone, SRB assay
[7] = tested on: ABCG2 mRNA; assay: Real-time RT-PCR of ABCG2 mRNA; format: cell-based, human; details: MCF7/AdVp3000 and HEK293/ABCG2, up to 3 days
Protocol: Real time RT-PCR and Cytotoxicity assay. RNA extraction and real-time RT-PCR were performed as we described previously (Cancer Res 66, 3248-55 (2006)). The sequences of ABCG2 primers are 5′-[…]-3′ (forward) SEQ. ID. No. 1 and 5′-[…]-3′ (reverse) SEQ. ID. No 2. The sequences of GAPDH primers are 5′-[…]-3′ (forward) SEQ. ID. No 3, and 5′-[…]-3′ (reverse) SEQ. ID. No 4. The relative ABCG2 RNA level (2^ΔCT) treated with inhibitors was expressed as percentage of the control (in the presence of 0.1% DMSO) where ΔCT (threshold cycle)=(CTABCG2−CTGAPDH).

[8] = in vitro; details: human, HEK293/ABCG2 cells
[9] = target: ABCC1 (Homo sapiens, UniProt P33527); assay: ABCC1-mediated adriamycin accumulation and ABCC1 level in HEK293/ABCC1 cells; details: data not shown
Chain of UniProt P33527 (P33527 whole entry): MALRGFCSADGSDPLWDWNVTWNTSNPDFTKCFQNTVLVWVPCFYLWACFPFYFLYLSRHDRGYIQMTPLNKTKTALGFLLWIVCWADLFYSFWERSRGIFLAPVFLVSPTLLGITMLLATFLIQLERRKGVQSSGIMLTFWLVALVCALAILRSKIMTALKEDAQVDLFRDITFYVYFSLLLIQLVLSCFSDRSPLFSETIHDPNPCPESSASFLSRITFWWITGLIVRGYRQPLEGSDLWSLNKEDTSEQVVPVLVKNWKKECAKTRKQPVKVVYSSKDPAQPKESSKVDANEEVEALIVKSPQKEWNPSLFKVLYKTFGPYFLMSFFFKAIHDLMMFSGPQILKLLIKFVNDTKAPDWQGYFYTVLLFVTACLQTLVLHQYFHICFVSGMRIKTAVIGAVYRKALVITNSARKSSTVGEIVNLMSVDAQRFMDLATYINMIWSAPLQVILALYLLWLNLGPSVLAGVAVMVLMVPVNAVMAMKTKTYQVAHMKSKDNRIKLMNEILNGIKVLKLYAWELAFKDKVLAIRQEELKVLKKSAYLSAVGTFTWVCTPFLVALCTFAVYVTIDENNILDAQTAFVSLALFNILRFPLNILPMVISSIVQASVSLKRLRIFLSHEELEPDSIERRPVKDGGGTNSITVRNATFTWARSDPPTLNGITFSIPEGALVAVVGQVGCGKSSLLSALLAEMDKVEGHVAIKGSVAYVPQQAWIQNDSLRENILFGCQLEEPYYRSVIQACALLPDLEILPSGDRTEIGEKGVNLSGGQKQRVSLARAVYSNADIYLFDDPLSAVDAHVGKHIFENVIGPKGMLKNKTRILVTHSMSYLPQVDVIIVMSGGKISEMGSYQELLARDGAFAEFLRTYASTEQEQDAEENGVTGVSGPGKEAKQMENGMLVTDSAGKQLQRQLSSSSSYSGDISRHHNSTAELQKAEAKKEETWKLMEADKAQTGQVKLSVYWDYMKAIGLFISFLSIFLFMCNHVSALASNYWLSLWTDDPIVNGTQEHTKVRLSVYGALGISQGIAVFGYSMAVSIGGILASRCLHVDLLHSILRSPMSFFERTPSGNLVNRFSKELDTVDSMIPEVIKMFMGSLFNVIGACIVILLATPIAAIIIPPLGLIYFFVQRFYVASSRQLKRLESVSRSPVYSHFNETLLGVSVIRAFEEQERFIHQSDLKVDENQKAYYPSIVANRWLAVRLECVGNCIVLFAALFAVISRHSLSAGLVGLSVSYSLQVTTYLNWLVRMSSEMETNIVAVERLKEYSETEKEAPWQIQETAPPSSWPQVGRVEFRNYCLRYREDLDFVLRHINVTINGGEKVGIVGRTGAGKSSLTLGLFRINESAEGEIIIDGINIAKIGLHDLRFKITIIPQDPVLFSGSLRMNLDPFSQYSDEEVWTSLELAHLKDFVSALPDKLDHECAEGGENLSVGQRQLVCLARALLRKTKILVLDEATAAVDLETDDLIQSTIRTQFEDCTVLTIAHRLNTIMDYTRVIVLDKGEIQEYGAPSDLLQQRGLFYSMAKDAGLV

[10] = tested on: MCF7 and vector-transfected HEK293 cells; assay: Mitoxantrone accumulation in control cells that do not express ABCG2; details: control MCF7 and vector-transfected HEK293, 3.8 μM
[11] = target: ABCB1 (Homo sapiens, UniProt P08183); assay: ABCB1-mediated adriamycin accumulation and ABCB1 level in BC19 cells; details: data not shown
Chain of UniProt P08183 (P08183 whole entry): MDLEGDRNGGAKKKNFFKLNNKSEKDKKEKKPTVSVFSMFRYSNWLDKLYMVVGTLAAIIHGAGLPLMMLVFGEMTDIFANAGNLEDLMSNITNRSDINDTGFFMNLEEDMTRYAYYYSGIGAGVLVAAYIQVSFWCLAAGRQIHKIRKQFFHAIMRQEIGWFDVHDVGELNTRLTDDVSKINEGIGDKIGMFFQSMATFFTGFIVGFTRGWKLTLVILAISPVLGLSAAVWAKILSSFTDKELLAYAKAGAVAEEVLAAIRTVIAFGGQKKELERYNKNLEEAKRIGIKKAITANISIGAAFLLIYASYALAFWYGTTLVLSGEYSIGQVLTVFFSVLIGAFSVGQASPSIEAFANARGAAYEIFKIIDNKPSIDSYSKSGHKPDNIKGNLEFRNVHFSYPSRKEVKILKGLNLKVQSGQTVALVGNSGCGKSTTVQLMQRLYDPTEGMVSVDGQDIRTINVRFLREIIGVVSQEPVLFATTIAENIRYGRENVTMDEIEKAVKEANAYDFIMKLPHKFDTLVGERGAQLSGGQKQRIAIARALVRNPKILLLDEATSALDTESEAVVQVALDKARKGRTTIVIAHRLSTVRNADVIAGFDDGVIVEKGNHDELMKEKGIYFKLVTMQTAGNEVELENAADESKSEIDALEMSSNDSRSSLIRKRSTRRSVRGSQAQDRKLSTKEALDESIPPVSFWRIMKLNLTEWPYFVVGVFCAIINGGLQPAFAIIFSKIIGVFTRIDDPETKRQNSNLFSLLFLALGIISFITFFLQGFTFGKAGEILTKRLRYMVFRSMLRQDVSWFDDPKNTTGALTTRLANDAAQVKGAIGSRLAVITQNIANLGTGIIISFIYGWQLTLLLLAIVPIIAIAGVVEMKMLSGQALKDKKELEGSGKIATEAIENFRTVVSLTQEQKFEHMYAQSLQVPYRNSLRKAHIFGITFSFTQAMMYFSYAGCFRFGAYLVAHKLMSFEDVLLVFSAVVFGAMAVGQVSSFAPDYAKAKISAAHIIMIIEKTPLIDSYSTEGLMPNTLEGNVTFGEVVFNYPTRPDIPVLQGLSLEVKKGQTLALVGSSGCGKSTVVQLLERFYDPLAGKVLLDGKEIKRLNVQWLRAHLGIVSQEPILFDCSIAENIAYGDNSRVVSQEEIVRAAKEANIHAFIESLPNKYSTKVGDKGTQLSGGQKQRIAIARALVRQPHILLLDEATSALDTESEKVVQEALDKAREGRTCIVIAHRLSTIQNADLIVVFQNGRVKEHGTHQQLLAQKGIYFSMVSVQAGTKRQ

COc1ccc2c3c([nH]c2c1)[C@H](C=C(C)C)N1C(=O)[C@@H]2CCCN2C(=O)[C@@H]1C3 [FTC, Fumitremorgin C]
SI (sensitization index) ([1]; 50 nM inhibitor): 0.85 | SI (sensitization index) ([1]; 200 nM inhibitor): 0.46 | Potency Index ([1]; ratio of inhibitor IC50 in absence and presence of mitoxantrone): ~76 | level of ABCG2 ([2]; HEK293/ABCG2, 10 μM, 24-72 hours): did not affect the level of ABCG2 | 5D3 staining / conformational change of ABCG2 [3]: increased 5D3 staining | intracellular mitoxantrone accumulation [4]: achieved similar level of effect | resistance to adriamycin, camptothecin and mitoxantrone (sensitization) [5]: much lower sensitization effect | IC50 ([6]; read-out: IC50 Inhibitor alone, HEK293/ABCG2 cells, no mitoxantrone): ~25 µM and 25 µM

CO/C1=C\C(C)=C\[C@@H](C)[C@@H](O)[C@@H](C)C/C(C)=C/C=C/[C@H](OC)[C@@H]([C@@H](C)[C@@H](O)[C@H](C)[C@@]2(O)C[C@@H](O)[C@H](C)[C@@H](C(C)C)O2)OC1=O [bafilomycin A1]
effect on PZ-39-induced ABCG2 degradation [2]: inhibited PZ-39-induced ABCG2 degradation

O=C(CSc1nc2ccc(Nc3nc(N4CCOCC4)nc(N4CCOCC4)n3)cc2s1)Nc1ccc(Cl)cc1 [PZ-39, N-(4-chlorophenyl)-2-[(6-{[4,6-di(4-morpholinyl)-1,3,5-triazin-2-yl]amino}-1,3-benzothiazol-2-yl)sulfanyl]acetamide]
ABCG2 mRNA levels [7]: No significant changes | IC50 [8]: > 25 µM

COc1ccc(OC)c(NC(=O)CSC2=N/C(=C/c3ccc(N(C)C)cc3)C(=O)N2c2ccccc2)c1 [PZ-38]
ABCC1-mediated drug efflux [9]: no effect | drug accumulation in control cells [10]: no measurable effect | IC50 [1]: ~0.045 µM | ABCB1-mediated drug efflux [11]: no effect | cytotoxicity ([6]; HEK293/ABCG2, concentrations up to 10 μg/ml): not cytotoxic
